In one experiment the target is T1, SHIP2-His (mouse) (UniProt Q6P549).
T1 sequence: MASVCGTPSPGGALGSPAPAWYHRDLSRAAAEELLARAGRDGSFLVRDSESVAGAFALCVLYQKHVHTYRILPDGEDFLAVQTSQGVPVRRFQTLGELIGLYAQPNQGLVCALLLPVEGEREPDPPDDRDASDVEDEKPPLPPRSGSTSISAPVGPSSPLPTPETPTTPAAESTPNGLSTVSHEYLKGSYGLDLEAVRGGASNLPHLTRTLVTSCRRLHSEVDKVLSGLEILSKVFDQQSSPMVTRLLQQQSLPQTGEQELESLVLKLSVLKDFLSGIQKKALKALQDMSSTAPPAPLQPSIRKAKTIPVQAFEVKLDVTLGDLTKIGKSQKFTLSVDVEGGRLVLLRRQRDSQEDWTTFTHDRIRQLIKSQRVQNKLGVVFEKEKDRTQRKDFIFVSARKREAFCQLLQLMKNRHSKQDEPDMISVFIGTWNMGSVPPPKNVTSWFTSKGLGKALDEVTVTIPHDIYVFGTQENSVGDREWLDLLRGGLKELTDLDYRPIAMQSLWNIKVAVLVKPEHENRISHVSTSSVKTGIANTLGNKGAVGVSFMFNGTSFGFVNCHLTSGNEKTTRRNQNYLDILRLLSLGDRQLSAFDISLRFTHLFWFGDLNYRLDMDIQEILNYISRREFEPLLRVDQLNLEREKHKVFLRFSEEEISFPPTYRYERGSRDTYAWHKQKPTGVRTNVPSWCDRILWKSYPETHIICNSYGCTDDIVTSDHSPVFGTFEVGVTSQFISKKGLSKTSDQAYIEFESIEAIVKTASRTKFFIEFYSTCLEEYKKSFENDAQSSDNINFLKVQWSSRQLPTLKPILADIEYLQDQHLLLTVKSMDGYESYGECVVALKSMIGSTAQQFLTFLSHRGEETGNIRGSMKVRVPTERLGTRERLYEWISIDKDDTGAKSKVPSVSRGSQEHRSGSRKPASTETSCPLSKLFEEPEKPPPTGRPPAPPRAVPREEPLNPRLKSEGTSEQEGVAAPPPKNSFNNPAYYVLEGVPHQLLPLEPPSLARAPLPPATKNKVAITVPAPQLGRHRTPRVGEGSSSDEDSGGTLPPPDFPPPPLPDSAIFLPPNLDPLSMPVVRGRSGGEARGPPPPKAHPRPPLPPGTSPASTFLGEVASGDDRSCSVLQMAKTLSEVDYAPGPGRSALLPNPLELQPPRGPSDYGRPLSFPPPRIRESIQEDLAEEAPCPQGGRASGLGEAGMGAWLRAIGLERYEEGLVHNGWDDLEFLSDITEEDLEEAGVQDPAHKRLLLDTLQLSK
In words: co-IP; cells co-transfected with pSHIP2-His and pFcγRIIb WT-GFP or Y273F-GFP for 36 hr; IP with anti-His antibody, protein G-Sepharose, 12 hr at 4°C; blot anti-GFP and anti-His.

Sequences of proteins named here, by UniProt entry; tags and fusion partners are left off. A change or cut given only in a name is not applied to a line headed by its entry. A line that says so, or that is headed by a name, gives the form on record, which may keep a tag or linker.
FcγRIIb Y273F-GFP (P31994-2, form named): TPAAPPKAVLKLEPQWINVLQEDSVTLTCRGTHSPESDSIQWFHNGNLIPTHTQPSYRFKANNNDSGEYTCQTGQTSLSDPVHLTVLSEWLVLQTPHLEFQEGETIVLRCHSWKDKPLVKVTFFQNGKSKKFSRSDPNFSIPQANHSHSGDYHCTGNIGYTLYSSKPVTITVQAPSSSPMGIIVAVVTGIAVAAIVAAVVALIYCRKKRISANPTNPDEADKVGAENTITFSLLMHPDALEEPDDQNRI
endogenous FcγRIIb in SH-SY5Y cells (human (endogenous in SH-SY5Y)) (P31994-2, form named): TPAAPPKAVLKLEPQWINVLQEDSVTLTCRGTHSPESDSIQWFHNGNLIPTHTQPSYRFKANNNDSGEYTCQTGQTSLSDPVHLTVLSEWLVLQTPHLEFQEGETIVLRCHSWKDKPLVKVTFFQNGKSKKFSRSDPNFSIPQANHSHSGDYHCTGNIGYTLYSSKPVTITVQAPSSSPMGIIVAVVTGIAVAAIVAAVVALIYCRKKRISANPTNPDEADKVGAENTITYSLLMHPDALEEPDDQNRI

Experiment [1] concerns the target FcγRIIb Y273F-GFP (human) (UniProt P31994). In words: co-IP; reverse: cells co-transfected with pSHIP2-His and pFcγRIIb WT-GFP or Y273F-GFP for 36 hr; IP with anti-GFP antibody, protein G-Sepharose, 12 hr at 4°C; blot anti-GFP and anti-His.
For another experiment, the target named is FcγRIIb-GFP (human) (UniProt P31994). Described as above.
Experiment [2] addresses endogenous FcγRIIb in SH-SY5Y cells (human (endogenous in SH-SY5Y)) (UniProt P31994). In words: co-IP; endogenous proteins; SH-SY5Y cells incubated with 1 μM Aβ_(1-42) oligomers for 24 hr; IP with anti-FcγRIIb or anti-SHIP2 antibody in IP buffer (50 mM Tris-Cl pH 7.4, 150 mM NaCl, 1% Triton X-100, 1 mM EDTA), 12 hr at 4°C, protein G-Sepharose.

Results are given in words; binding and its absence hold for the method and conditions named. Binding seen in cells or lysates may run through a third protein. Some entries that bind do so weakly or less than the wild type. For some assays here: Tags and fused reporters may be left off the sequences shown.

As to “FcγRIIb Y273F-GFP (from UniProt P31994-2 43-291) (receptor)”, in the experiment with SHIP2-His (mouse), the binding result is “no binding”.

In the case of “FcγRIIb-GFP (from UniProt P31994-2 43-291) (receptor)”, the binding entry with SHIP2-His (mouse) is “binds”.

B1: SHIP2-His (enzyme, UniProt Q6P549 1-1257)
chain: MASVCGTPSPGGALGSPAPAWYHRDLSRAAAEELLARAGRDGSFLVRDSESVAGAFALCVLYQKHVHTYRILPDGEDFLAVQTSQGVPVRRFQTLGELIGLYAQPNQGLVCALLLPVEGEREPDPPDDRDASDVEDEKPPLPPRSGSTSISAPVGPSSPLPTPETPTTPAAESTPNGLSTVSHEYLKGSYGLDLEAVRGGASNLPHLTRTLVTSCRRLHSEVDKVLSGLEILSKVFDQQSSPMVTRLLQQQSLPQTGEQELESLVLKLSVLKDFLSGIQKKALKALQDMSSTAPPAPLQPSIRKAKTIPVQAFEVKLDVTLGDLTKIGKSQKFTLSVDVEGGRLVLLRRQRDSQEDWTTFTHDRIRQLIKSQRVQNKLGVVFEKEKDRTQRKDFIFVSARKREAFCQLLQLMKNRHSKQDEPDMISVFIGTWNMGSVPPPKNVTSWFTSKGLGKALDEVTVTIPHDIYVFGTQENSVGDREWLDLLRGGLKELTDLDYRPIAMQSLWNIKVAVLVKPEHENRISHVSTSSVKTGIANTLGNKGAVGVSFMFNGTSFGFVNCHLTSGNEKTTRRNQNYLDILRLLSLGDRQLSAFDISLRFTHLFWFGDLNYRLDMDIQEILNYISRREFEPLLRVDQLNLEREKHKVFLRFSEEEISFPPTYRYERGSRDTYAWHKQKPTGVRTNVPSWCDRILWKSYPETHIICNSYGCTDDIVTSDHSPVFGTFEVGVTSQFISKKGLSKTSDQAYIEFESIEAIVKTASRTKFFIEFYSTCLEEYKKSFENDAQSSDNINFLKVQWSSRQLPTLKPILADIEYLQDQHLLLTVKSMDGYESYGECVVALKSMIGSTAQQFLTFLSHRGEETGNIRGSMKVRVPTERLGTRERLYEWISIDKDDTGAKSKVPSVSRGSQEHRSGSRKPASTETSCPLSKLFEEPEKPPPTGRPPAPPRAVPREEPLNPRLKSEGTSEQEGVAAPPPKNSFNNPAYYVLEGVPHQLLPLEPPSLARAPLPPATKNKVAITVPAPQLGRHRTPRVGEGSSSDEDSGGTLPPPDFPPPPLPDSAIFLPPNLDPLSMPVVRGRSGGEARGPPPPKAHPRPPLPPGTSPASTFLGEVASGDDRSCSVLQMAKTLSEVDYAPGPGRSALLPNPLELQPPRGPSDYGRPLSFPPPRIRESIQEDLAEEAPCPQGGRASGLGEAGMGAWLRAIGLERYEEGLVHNGWDDLEFLSDITEEDLEEAGVQDPAHKRLLLDTLQLSK
In the case of B1, the binding entry is recorded as “no binding” in experiment [1] and “binds” with FcγRIIb-GFP (human).

B2: endogenous SHIP2 in SH-SY5Y cells (enzyme, UniProt O15357 1-1258)
chain: MASACGAPGPGGALGSQAPSWYHRDLSRAAAEELLARAGRDGSFLVRDSESVAGAFALCVLYQKHVHTYRILPDGEDFLAVQTSQGVPVRRFQTLGELIGLYAQPNQGLVCALLLPVEGEREPDPPDDRDASDGEDEKPPLPPRSGSTSISAPTGPSSPLPAPETPTAPAAESAPNGLSTVSHDYLKGSYGLDLEAVRGGASHLPHLTRTLATSCRRLHSEVDKVLSGLEILSKVFDQQSSPMVTRLLQQQNLPQTGEQELESLVLKLSVLKDFLSGIQKKALKALQDMSSTAPPAPQPSTRKAKTIPVQAFEVKLDVTLGDLTKIGKSQKFTLSVDVEGGRLVLLRRQRDSQEDWTTFTHDRIRQLIKSQRVQNKLGVVFEKEKDRTQRKDFIFVSARKREAFCQLLQLMKNKHSKQDEPDMISVFIGTWNMGSVPPPKNVTSWFTSKGLGKTLDEVTVTIPHDIYVFGTQENSVGDREWLDLLRGGLKELTDLDYRPIAMQSLWNIKVAVLVKPEHENRISHVSTSSVKTGIANTLGNKGAVGVSFMFNGTSFGFVNCHLTSGNEKTARRNQNYLDILRLLSLGDRQLNAFDISLRFTHLFWFGDLNYRLDMDIQEILNYISRKEFEPLLRVDQLNLEREKHKVFLRFSEEEISFPPTYRYERGSRDTYAWHKQKPTGVRTNVPSWCDRILWKSYPETHIICNSYGCTDDIVTSDHSPVFGTFEVGVTSQFISKKGLSKTSDQAYIEFESIEAIVKTASRTKFFIEFYSTCLEEYKKSFENDAQSSDNINFLKVQWSSRQLPTLKPILADIEYLQDQHLLLTVKSMDGYESYGECVVALKSMIGSTAQQFLTFLSHRGEETGNIRGSMKVRVPTERLGTRERLYEWISIDKDEAGAKSKAPSVSRGSQEPRSGSRKPAFTEASCPLSRLFEEPEKPPPTGRPPAPPRAAPREEPLTPRLKPEGAPEPEGVAAPPPKNSFNNPAYYVLEGVPHQLLPPEPPSPARAPVPSATKNKVAITVPAPQLGHHRHPRVGEGSSSDEESGGTLPPPDFPPPPLPDSAIFLPPSLDPLPGPVVRGRGGAEARGPPPPKAHPRPPLPPGPSPASTFLGEVASGDDRSCSVLQMAKTLSEVDYAPAGPARSALLPGPLELQPPRGLPSDYGRPLSFPPPRIRESIQEDLAEEAPCLQGGRASGLGEAGMSAWLRAIGLERYEEGLVHNGWDDLEFLSDITEEDLEEAGVQDPAHKRLLLDTLQLSK
Turning to B2, the binding entry in experiment [2] is given as “binds”.

The values above are taken from article PMC5106215.
